Among all 410,000 compounds or so, about 7,200 (1.8%) were called active. Inconclusive results, whose numbers are uncertain, are shown with a selection of clear calls. The call rests on the fitted dose curve; in most records, active means well fitted activation curve with a large enough effect; inconclusive means small, poorly fitted or top-dose-only effect, or another doubt; inactive means no such curve, though single readings can be large or run the other way. Potencies of inconclusive entries are left out as doubtful fits.
Assay: qHTS of TDP-43 Inhibitors; further: nearly all actives have a fitted effect of over 50% in size; on growth rescue (activation): % of control where 0% means no effect
Conditions: TDP-43 expressing yeast growth rescue, BacTiter-Glo, 24 h; growth rescue (activation): at 46.1 µM (top of the series) unless noted
Procedure, shortened: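 Luminescence from BacTiter-Glo reports growth of TDP-43-expressing yeast after 24 hr at 30 deg C with compound. Cells were raffinose-pregrown to mid-log, then seeded in galactose medium at OD600=0.02.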
Potency means the concentration at half of the fitted maximal effect; tags describe the fitted curve by direction and shape.

Compound | growth rescue (activation) | Potency
CCOc1ccc(-c2n[nH]c(=S)o2)cc1 | inconclusive: -52.7% [activator] | –
CC(C)CCN(C(=S)Nc1cccc(F)c1)C1CCN(C(C)C)CC1 | – | inactive
CN(c1ccccc1)S(=O)(=O)c1cccc(C(=O)NNC(=O)c2ccncc2)c1 | – | inactive
CC1=NN(C(N)=S)C(=O)C1N=Nc1c(Cl)cc([N+](=O)[O-])cc1Cl (stereo not given) | – | inconclusive [activator, partial curve, poor fit]
COc1cccc(C(=O)Nc2ccc(-c3nc4ccccc4o3)c(O)c2)c1 | – | inactive
COc1cccc(-c2nc(NC(C)C)c3ccccc3n2)c1O | – | active: 20 µM
O=C(COC(=O)Cc1ccc(Cl)cc1)Nc1ccc(OC(F)F)cc1 | – | inconclusive [activator, partial curve]
OC[C@@H]1CN(Cc2ccc(-c3ccccc3)cc2)C[C@H](n2cnc3c(NC4CCCC4)ncnc32)O1 | – | inconclusive [activator, single point]
Cc1ccc(-c2csc(N3C(=N)SCC3=O)n2)cc1 | – | inactive
COc1cc(/C=C/C(=O)c2ccccc2O)cc(OC)c1OC | – | active: 15.8 µM
COc1ccc(S(=O)(=O)NCCc2csc3nc(-c4ccc(OC)c(OC)c4)nn23)cc1C | – | inactive
COc1ccc(N2CCN(c3nc(Nc4ccc(C)c(F)c4)nc(N4CCCC4)n3)CC2)cc1 | – | inconclusive [activator, single point]
CC(=O)Nc1ccc(NC(=O)c2oc3cc(C)c(C)cc3c2C)cc1 | – | inconclusive [activator, full curve]
CCOC(=O)c1[nH]c2ccc(C(=O)OC)cc2c1C(=O)OCC | – | inactive
CC(C)(C)c1ccc(N2C(=O)CSC2c2cccnc2)cc1 (stereo not given) | – | inactive
Cc1c(CCO)c(=O)[nH]n1S(=O)(=O)c1ccccc1 | – | inactive
O=C(Nc1ccccc1Cl)N1CCN(c2ccc3nncn3n2)CC1 | inconclusive: 18.1% [activator] | –
COc1ccc(-c2nc(C(=O)Nc3ccc(C(C)=O)cc3)nn2-c2cccc(Cl)c2)cc1 | – | inconclusive [activator, single point]
CCN(CC)c1ccc2cc(-c3nc(-c4ccc(OC)cc4)cs3)c(=O)oc2c1 | – | inactive
COc1cccc(C(O)c2nc(-c3cccc(C#N)c3)cs2)c1 (stereo not given) | – | inconclusive [activator, partial curve]
CCn1nc(C(=O)OCc2c(C)noc2C)c2ccccc2c1=O | – | inconclusive [activator, partial curve, poor fit]
COc1ccc(OCCNS(=O)(=O)c2cccc([N+](=O)[O-])c2)cc1 | – | inconclusive [activator, single point]
CCN(C[C@H]1N[C@@](Cc2ccccc2)(C(=O)OC)[C@H]2C(=O)N(Cc3ccccc3)C(=O)[C@@H]12)C(=O)Nc1ccc(C(F)(F)F)cc1 | inconclusive: -80.5% [activator] | –
O=C(CCCN1C(=O)c2ccccc2C1=O)NCCc1ccc(OC(F)F)cc1 | – | active: 12.6 µM

Compound | growth rescue (activation) | Potency
CCN(C(=O)c1cc2cc3ccc(OC)cc3nc2o1)c1cccc(C)c1 | – | inconclusive [activator, single point]
Cc1[nH][nH]c(=O)c1N=Nc1ccc(F)cc1 | – | inconclusive [activator, partial curve]
Cc1nc(SCC(=O)CC(=O)OC(C)C)c(C#N)c(C)c1C | – | inconclusive [activator, partial curve]
CN(C(=O)CCl)C1CCCc2ccccc21 (stereo not given) | – | inconclusive [activator, single point]
O=C(c1cccs1)N1C[C@@H](n2cc(C3CC3)nn2)[C@H](O)C[C@@H]1c1ccc(Cl)cc1 | – | inactive
CCCCCSc1nc2sc3c(c2c(=O)n1-c1ccccc1)CCN(C(C)=O)C3 | – | inconclusive [activator, single point]
COc1ccc(S(=O)(=O)NCCSC(C)(C)C)cc1Cl | – | inconclusive [activator, single point]
O=C(/C=C/c1cc[n+](CC(=O)c2ccc3cccc4c3c2CC4)cc1)c1ccc2cccc3c2c1CC3 | – | inconclusive [activator, single point]
CC(C)(C)C(=O)Nc1nc(=S)ss1 | – | inconclusive [activator, single point]
CNC(=O)Cn1cc(S(=O)(=O)Cc2ccccc2F)c2ccccc21 | – | inconclusive [activator, full curve, poor fit]
Oc1ccc(N=Nc2c(O)ccc3ccccc23)cc1 | – | inconclusive [activator, full curve]
O=C(Cc1ccc(Br)cc1)N1CCN(c2ccccc2)CC1 | – | inconclusive [activator, single point]
CCOC(=O)c1ccc(NC(=O)N2CCOc3ccccc32)cc1 | – | inconclusive [activator, partial curve]
NC(=NC(=O)c1ccc(Cl)cc1)N1N=CCC1c1ccccc1 (stereo not given) | – | inconclusive [activator, partial curve]
Cn1c(=O)c2c(ncn2CCOc2cccc(Br)c2)n(C)c1=O | – | active: 14.1 µM
O=C(CN1C(=O)NC(Cc2ccccc2)(Cc2ccccc2)C1=O)NCC1CCCCC1 | – | inconclusive [activator, full curve]
Clc1ccc(CCNc2nc3ccccc3s2)cc1 | – | inconclusive [activator, partial curve]
COc1cc(C(=S)N2CCCC2)cc(Cl)c1O | – | inconclusive [activator, partial curve]
CCCSc1nc(C)c(C(C)=O)cc1C#N | – | inconclusive [activator, partial curve]
CCC(=O)c1ccc(OCC(=O)NCC2COc3ccccc3O2)cc1 (stereo not given) | – | inconclusive [activator, partial curve]
O=C(NCc1c(O)ccc2ccccc12)c1ccccc1 | – | active: 20 µM
C=CCn1nc([N+](=O)[O-])nc1Sc1cccc2cccnc12 | – | inconclusive [activator, single point]
CCCCc1nc(NCCNC(=O)c2ccccc2)c(C#N)c2c1CSC(C)(C)C2 | – | active: 22.4 µM
COC(=O)c1cc(O)cc(OC)c1C(=O)c1c(O)cc(C)cc1O | – | inactive

Compound | growth rescue (activation) | Potency
O=C(/C=C\c1cn(-c2ccccc2)nc1-c1ccc2c(c1)OCCO2)N1CCOCC1 | – | inconclusive [activator, single point]
Cc1ccc(OCCCC(=O)ON=C(N)c2ccccc2C)cc1 | – | inconclusive [activator, single point]
CCNC(=O)C(Sc1ccccc1)c1ccccc1 (stereo not given) | – | inconclusive [activator, partial curve, poor fit]
NC(=S)N/N=C/c1ccc(/C=N/NC(N)=S)cc1 | – | inconclusive [activator, full curve, poor fit]
CCC(=O)N1N=C(c2ccc(C)cc2)CC1c1ccco1 (stereo not given) | – | inconclusive [activator, partial curve]
COc1ccc2c(c1)C(=O)C1(CC2)OC1c1cccnc1 (stereo not given) | – | inconclusive [activator, partial curve]
O=c1[nH]c(-c2ccco2)nc2sc3c(c12)CCCC3 | – | active: 17.8 µM
COc1ccc(-c2oc3cccnc3c2C#CC2(O)CCCCC2)cc1 | – | inconclusive [activator, single point]
Cc1csc(NC(=O)CSc2ncnc3ccccc23)n1 | – | inconclusive [activator, partial curve]
COC(=O)c1sccc1NC(=O)Nc1ccccc1F | – | inactive
Nc1c(-c2cccc(Cl)c2)cnn1-c1ccccc1 | inconclusive: 65.6% [activator] | –
CC[C@@H](C)[C@H](NC(=O)OC(C)(C)C)c1nnc(S(=O)(=O)Cc2cc(C)ccc2C)o1 | inconclusive: -66% [activator] | –
COc1ccc(/C(N)=N/OC(=O)CCc2ccccc2)cc1 | – | inconclusive [activator, single point]
O=C(NCc1ccccc1Cl)C1CCN(c2cnccn2)CC1 | – | inconclusive [activator, partial curve]
COCCNC(=S)NCc1ccc2[nH]c3c(c2c1)CCCC3 | – | inconclusive [activator, full curve]
CCn1c2ccccc2c2cc(/C=N/n3cnnc3)ccc21 | – | inconclusive [activator, single point]
O=C1[C@H]2[C@@H](c3ccc(C(F)(F)F)cc3)N[C@]3(CCCN(Cc4ccc(C(F)(F)F)cc4)C3=O)[C@H]2C(=O)N1Cc1ccccc1 | – | inconclusive [activator, partial curve, poor fit]
Cc1cc(Br)c2c(c1)C(O)(N1CCCCC1C)C(=O)N2 (stereo not given) | – | inconclusive [activator, partial curve]
CC(C)(C)NC(=O)C(c1cccc2ccccc12)n1c(=O)c(-c2ccco2)nc2ccccc21 (stereo not given) | – | inactive
CC1Cc2ccccc2N1C(=O)COc1cccc(-n2cnnn2)c1 (stereo not given) | – | inconclusive [activator, single point]
O=S1(=O)CCOC[C@H](Cc2ccccc2)N1Cc1cccc(C(F)(F)F)c1 | – | inconclusive [activator, single point]
CCOC(=O)c1ccc(NC(=O)c2c(N3CCCC3=O)c3cc(OC)ccc3n2C)cc1 | – | inconclusive [activator, single point]

Source: PubChem BioAssay AID652104 (National Center for Advancing Translational Sciences (NCATS), 2013)
